# Hit rate of the full screen: of about 310,000 compounds, about 14,000 (4.5%) showed an effect of 50% or more. Effects have a minus sign here. Some of the results follow.
# Target: human ether-à-go-go-related gene (hERG) potassium channel (human, UniProt Q12809)
# Assay: primary screen, population patch clamp on CHO cells stably expressing hERG
# 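Also: peak tail current of the secondary pulse compared with the same well before compound.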
# Sequence of human ether-à-go-go-related gene (hERG) potassium channel (Q12809 whole entry, looked up): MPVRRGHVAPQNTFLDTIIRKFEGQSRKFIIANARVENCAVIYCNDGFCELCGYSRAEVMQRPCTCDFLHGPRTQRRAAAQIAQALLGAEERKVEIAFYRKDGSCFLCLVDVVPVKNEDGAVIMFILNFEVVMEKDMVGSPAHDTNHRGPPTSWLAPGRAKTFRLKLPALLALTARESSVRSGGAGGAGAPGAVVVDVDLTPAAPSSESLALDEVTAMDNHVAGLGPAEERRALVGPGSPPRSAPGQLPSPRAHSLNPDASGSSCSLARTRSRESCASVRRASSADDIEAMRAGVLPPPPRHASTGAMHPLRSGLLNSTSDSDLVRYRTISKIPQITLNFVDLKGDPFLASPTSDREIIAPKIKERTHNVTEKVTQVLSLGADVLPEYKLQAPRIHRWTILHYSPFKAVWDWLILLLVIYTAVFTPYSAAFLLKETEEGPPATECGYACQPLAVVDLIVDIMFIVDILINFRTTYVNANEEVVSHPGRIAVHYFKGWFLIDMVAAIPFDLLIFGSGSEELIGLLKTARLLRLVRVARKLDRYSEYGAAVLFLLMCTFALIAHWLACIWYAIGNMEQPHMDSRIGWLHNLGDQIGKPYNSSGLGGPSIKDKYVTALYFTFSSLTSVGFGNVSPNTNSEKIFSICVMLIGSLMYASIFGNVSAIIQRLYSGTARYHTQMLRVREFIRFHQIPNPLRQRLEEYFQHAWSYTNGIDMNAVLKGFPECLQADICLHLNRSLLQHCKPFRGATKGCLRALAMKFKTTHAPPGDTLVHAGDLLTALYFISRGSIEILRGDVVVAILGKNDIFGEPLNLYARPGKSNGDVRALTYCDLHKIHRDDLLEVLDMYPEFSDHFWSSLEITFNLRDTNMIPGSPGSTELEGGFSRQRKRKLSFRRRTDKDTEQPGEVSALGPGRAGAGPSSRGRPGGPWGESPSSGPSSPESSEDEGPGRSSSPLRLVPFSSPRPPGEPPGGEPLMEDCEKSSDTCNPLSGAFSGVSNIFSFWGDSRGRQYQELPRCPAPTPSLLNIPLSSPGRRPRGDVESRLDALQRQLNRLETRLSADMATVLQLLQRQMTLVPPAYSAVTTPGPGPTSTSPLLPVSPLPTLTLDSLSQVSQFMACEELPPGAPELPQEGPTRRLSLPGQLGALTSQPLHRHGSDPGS
row,Structure (SMILES),"hERG current change (%, negative = inhibition) at 10uM"
1,Cc1ccc(NC(=O)N2CCCn3c(SCC(=O)c4ccccc4)nnc32)cc1,-1.04%
2,Cc1cc(C)nc(N/N=C/C=C/c2ccccc2)n1,-49%
3,COc1ccc(CNC(=O)CNC(=O)c2sc3ccccc3c2Cl)cc1OC,6.04%
4,Cc1ccc(C(=O)CN(CCCC(N)=O)C(=O)c2ccncc2)cc1,17.9%
5,Cc1cc(C)c(C)c(OCC(=O)O/N=C(\N)c2ccncc2)c1,-10.5%
6,CC(C)(C)c1csc(NNC(=O)c2ccc(Cl)cc2)n1,6.98%
7,CN(C)S(=O)(=O)c1cccc(NC(=O)COC(=O)COc2ccccc2[N+](=O)[O-])c1,8.02%
8,Cc1nc(NC(=O)Nc2ccc(Cl)cc2)sc1C,10.9%
9,Cc1nc2ccccc2nc(=O)c1NNc1ccc([N+](=O)[O-])cc1,-1.1%
10,Cn1c(SCc2cccc(C#N)c2)nc2ccccc2c1=O,-2.43%
11,O=C(CN1C(=O)NC2(CCCCC2)C1=O)NCc1cccs1,5.87%
12,Cc1ccc(CNC(=O)c2ccc(NC(=O)C3=CSCCO3)cc2)cc1,0.396%
13,COc1ccc(N2C(=O)NC(NC(=O)C(C)(C)C)(C(F)(F)F)C2=O)cc1 (stereo not shown),35.2%
14,CC(=O)Nc1ccc(NC(=O)CSc2ccc3nnc(CCNC(=O)c4ccccc4)n3n2)cc1,4.98%
15,CC(=O)Nc1ccc(/C(C)=N/NC(=O)c2ccncc2)cc1,10.5%
16,NC(=O)Cn1nc2sc3ccccc3n2c(=O)c1=O,12.6%
17,CCCn1c(N)c(C(=O)CN(C)CC(=O)Nc2c(Cl)cccc2Cl)c(=O)[nH]c1=O,-9.48%
18,Cc1nc2ncnn2c(Nc2ccc3c(c2)OCO3)c1Cc1ccccc1,-55.1%
19,Cc1cc2ccccc2c(=O)n1CC(=O)Nc1ccc2c(c1)OCO2,-2.97%
20,O=C(COc1coc(CN2CCN(c3cccc(Cl)c3)CC2)cc1=O)NC1CCCC1,-24.9%
21,COc1ccc(Cc2nnc(SCc3ccc([N+](=O)[O-])cc3)o2)cc1,-26.2%
22,Cc1nc(-c2ccc(Cl)cc2)sc1C1(C)CC(c2cccc([N+](=O)[O-])c2)=NO1 (stereo not shown),9.75%

row,Structure (SMILES),"hERG current change (%, negative = inhibition) at 10uM"
1,Cc1ccccc1OCC(=O)Nc1ccccc1CO,11.5%
2,CCN(CC(=O)Nc1ccccc1OC)C(=O)CN1C(=O)NC2(CCCC2)C1=O,-37.9%
3,CC(=O)Nc1ccc(-c2nnn(CC(=O)c3ccc(F)cc3)n2)cc1Cl,3.95%
4,CCOc1ccc(NC(C)c2cc(Cl)ccc2O)cc1 (stereo not shown),5.68%
5,CCOC(=O)CCc1c(C)c2ccc(OC3CCCCC3=O)cc2oc1=O (stereo not shown),18.7%
6,CCOC(=O)c1oc2nc3c(cc2c1N)CCCC3,9.43%
7,O=c1ccn([C@@H]2O[C@H](CO)[C@@H](O)[C@H]2O)c(=O)[nH]1,13.5%
8,CCCN1CCCC[C@H]1C(=O)Nc1c(C)cccc1C.Cl,-22%
9,Cc1cc(C)n(C(=O)CCCCCCCC(=O)n2nc(C)cc2C)n1,0.265%
10,O=C(O)CCCC(=O)NCCc1ccncc1,12.6%
11,Cc1ccc(-n2nnnc2SCC(=O)NCCC2=CCCCC2)c(C)c1,-13.1%
12,O=C1NC(=O)N(c2ccc(Cl)cc2)C(=O)/C1=C/c1coc2ccc(O)cc2c1=O,4.71%
13,CSc1nc2ccccc2n1CC(=O)Nc1ccccc1,0.767%
14,CCCCn1nc(NS(=O)(=O)c2cccc3nonc23)c2cc3cccc(C)c3nc21,23%
15,O=C(NCc1ccccc1)c1nc[nH]c1C(=O)NCc1ccccc1,7.21%
16,COc1ccc(OC)c(/C=C/C(=O)OCC(=O)NCc2cccs2)c1,17.8%
17,Cc1ccc(C)c(NC(=O)C2CCCN(S(=O)(=O)c3c(C)nn(C)c3C)C2)c1 (stereo not shown),11.6%
18,CCOc1ccc(NC(=O)c2cc(F)c(F)cc2Cl)cc1OCC,22.1%
19,CC1CCCN(C(=O)Cn2nnc(-c3ccc(F)cc3)n2)C1 (stereo not shown),-25.5%
20,Cc1ccccc1NS(=O)(=O)c1ccc(OCC(=O)NCC2CCCO2)cc1 (stereo not shown),2.34%
21,CC(C)C(C)(C#N)NC(=O)CSc1nnc(-c2ccncc2)n1Cc1ccccc1 (stereo not shown),1.1%
22,Cc1cccnc1NC(=O)c1ccc(NS(=O)(=O)/C=C/c2ccccc2)cc1,-18.2%

row,Structure (SMILES),"hERG current change (%, negative = inhibition) at 10uM"
1,C=CCN(N=Nc1cccc([N+](=O)[O-])c1)c1cccc([N+](=O)[O-])c1,13.2%
2,Cc1ccc(C)c(S(=O)(=O)C(C#N)c2nc3ccccc3nc2N2CCOCC2)c1 (stereo not shown),11.6%
3,Cc1c(NC(=O)c2ccc3c(c2)OCO3)cccc1-c1nc2ccccc2o1,-6.02%
4,CC(=O)NC(c1cc(Cl)c2cccnc2c1O)C1CC1 (stereo not shown),6.7%
5,O=C(Cn1nc(-c2ccco2)ccc1=O)Nc1ccc(Br)cc1,2.84%
6,O=C1C(=O)N(Cc2ccco2)C(c2cccs2)/C1=C(\O)c1cccc([N+](=O)[O-])c1 (stereo not shown),4.21%
7,Cc1cc(C(=O)N2CCc3ccccc3C2)on1,10.1%
8,CC(=O)NS(=O)(=O)c1ccc(NS(=O)(=O)c2ccc3ccccc3c2)cc1,0.292%
9,CCOC(=O)C1CCCN(C(=O)c2ccc(Cn3c(=S)[nH]c4cc(C(=O)OC)ccc4c3=O)cc2)C1 (stereo not shown),10.6%
10,O=C(c1ccc2ccccc2n1)N1CCN(c2ccccc2Cl)CC1,-64.8%
11,O=C(NNC(=O)c1sccc1-n1cccc1)c1ccc(Cl)cc1,11.9%
12,CS(=O)(=O)O.Cc1ccc(N(CC2=NCCN2)c2cccc(O)c2)cc1,-51.2%
13,COc1ccc(/C=N/NC(=O)CCC(=O)Nc2ccc(F)cc2)c(OC)c1,14.9%
14,CC(C)=CC(O)C/C(C)=C/COc1ccc2ccc(=O)oc2c1 (stereo not shown),-8.79%
15,CC(CCc1ccccc1)NC(=O)c1cccc(F)c1 (stereo not shown),8.59%
16,O=[N+]([O-])c1ccc2nc(-c3ccncc3)[nH]c2c1,-6.32%
17,O=C1CN(C(=O)c2ccc(Br)o2)C(c2ccc(F)cc2)c2cc(F)ccc2N1 (stereo not shown),-28.4%
18,CCOc1ccc2nc(SCC(=O)NC3CCCCC3)[nH]c2c1,-0.262%
19,COc1ccc(-c2oc(=O)n(C)c2-c2ccc(OC)cc2)cc1,-26.2%
20,Cc1nc(N)c(CC(Br)CBr)c(Cl)n1 (stereo not shown),10.3%
21,Cc1sc2c(c1C)c(=O)n(-c1ccccc1)c1nncn21,5.43%
22,CN(C)S(=O)(=O)n1cc(/C=C(\NC(=O)c2ccccc2F)C(=O)N2CCCC2)c2ccccc21,15%

row,Structure (SMILES),"hERG current change (%, negative = inhibition) at 10uM"
1,COC(CNC(=O)c1coc2nc3ccccc3nc12)OC,1.77%
2,COc1cc2cc[n+](Cc3ccc([N+](=O)[O-])cc3)cc2cc1OC.[Cl-],-30.5%
3,CCn1c(=O)c(C(=O)Nc2ccsc2C(=O)OC)c(O)c2ccccc21,15.3%
4,COc1ccc(-n2c(O)c(C=Nc3c(C)n(C)n(-c4ccccc4)c3=O)c(=O)[nH]c2=O)cc1,3.57%
5,CSC1=NS(=O)(=O)c2c(C)nn(C)c2S1,17.6%
6,O=C(Nc1cnn(Cc2ccc(F)cc2)c1)c1cc(-c2ccco2)on1,-6.05%
7,O=S(=O)(Nc1ncccn1)c1ccc(NC(=S)Nc2ccccc2)cc1,16.5%
8,Cc1nc(Cl)c2c(n1)N(CC(N)=O)C(=O)CO2,13.4%
9,COc1ccccc1NC(=O)/C(=C\c1cccnc1)NC(=O)c1ccc(C)cc1,-71.9%
10,CC1Sc2ccc(C(=O)NCc3cccc(C(F)(F)F)c3)cc2NC1=O (stereo not shown),-4.86%
11,O=C(COc1ccccc1)Nc1nnc(S(=O)(=O)N2CCCCC2)s1,24.9%
12,CCOc1ccccc1NC(=O)NCCN1CCCCC1,8.27%
13,Cc1c(Cl)c([N+](=O)[O-])nn1CCCC(=O)Nc1c(C)n(C)n(-c2ccccc2)c1=O,16.5%
14,Cc1ccccc1NC(=S)NCCc1ccccn1,-0.0106%
15,Cc1c(OCC(=O)NCC2CCC(C(=O)NCCCO)CC2)ccc2c(-c3ccccc3)cc(=O)oc12 (stereo not shown),0.988%
16,Oc1cccc2ccc(/C=C/c3ccccc3Cl)nc12,8.86%
17,CCOc1ccc2oc(C(=O)NNC(=O)c3csc(N4CCOCC4)n3)c(C)c2c1,-9.06%
18,CNC(=S)NNC(=O)c1noc(C)c1C(=O)N1CCN(C(c2ccccc2)c2ccccc2)CC1,36.7%
19,O=C(/C=C/c1cn(-c2ccccc2)nc1-c1ccc2c(c1)OCCO2)NCCO,-51.1%
20,COc1ccc(-n2c(=O)[nH]c3ccccc3c2=O)c(OC)c1,2.33%
21,O=C(COC(=O)C1COc2ccccc2O1)Nc1cccc(Cl)c1 (stereo not shown),5.82%
22,CCc1ccc2c(CN(C)Cc3ccc(OC(F)F)c(OC)c3)cc(=O)oc2c1,-72.5%
